Reference: paper PMC4336329 (PLoS ONE, 2015)
Screen size: about 310,000 compounds; about 14,000 (4.5%) showed an effect of 50% or more. Effects have a minus sign here. The list shows a part of the results.

target: human ether-à-go-go-related gene (hERG) potassium channel (human, UniProt Q12809); test: primary screen, population patch clamp on CHO cells stably expressing hERG
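Also: peak tail current of the secondary pulse compared with the same well before compound.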

Sequence of human ether-à-go-go-related gene (hERG) potassium channel (Q12809 whole entry, looked up): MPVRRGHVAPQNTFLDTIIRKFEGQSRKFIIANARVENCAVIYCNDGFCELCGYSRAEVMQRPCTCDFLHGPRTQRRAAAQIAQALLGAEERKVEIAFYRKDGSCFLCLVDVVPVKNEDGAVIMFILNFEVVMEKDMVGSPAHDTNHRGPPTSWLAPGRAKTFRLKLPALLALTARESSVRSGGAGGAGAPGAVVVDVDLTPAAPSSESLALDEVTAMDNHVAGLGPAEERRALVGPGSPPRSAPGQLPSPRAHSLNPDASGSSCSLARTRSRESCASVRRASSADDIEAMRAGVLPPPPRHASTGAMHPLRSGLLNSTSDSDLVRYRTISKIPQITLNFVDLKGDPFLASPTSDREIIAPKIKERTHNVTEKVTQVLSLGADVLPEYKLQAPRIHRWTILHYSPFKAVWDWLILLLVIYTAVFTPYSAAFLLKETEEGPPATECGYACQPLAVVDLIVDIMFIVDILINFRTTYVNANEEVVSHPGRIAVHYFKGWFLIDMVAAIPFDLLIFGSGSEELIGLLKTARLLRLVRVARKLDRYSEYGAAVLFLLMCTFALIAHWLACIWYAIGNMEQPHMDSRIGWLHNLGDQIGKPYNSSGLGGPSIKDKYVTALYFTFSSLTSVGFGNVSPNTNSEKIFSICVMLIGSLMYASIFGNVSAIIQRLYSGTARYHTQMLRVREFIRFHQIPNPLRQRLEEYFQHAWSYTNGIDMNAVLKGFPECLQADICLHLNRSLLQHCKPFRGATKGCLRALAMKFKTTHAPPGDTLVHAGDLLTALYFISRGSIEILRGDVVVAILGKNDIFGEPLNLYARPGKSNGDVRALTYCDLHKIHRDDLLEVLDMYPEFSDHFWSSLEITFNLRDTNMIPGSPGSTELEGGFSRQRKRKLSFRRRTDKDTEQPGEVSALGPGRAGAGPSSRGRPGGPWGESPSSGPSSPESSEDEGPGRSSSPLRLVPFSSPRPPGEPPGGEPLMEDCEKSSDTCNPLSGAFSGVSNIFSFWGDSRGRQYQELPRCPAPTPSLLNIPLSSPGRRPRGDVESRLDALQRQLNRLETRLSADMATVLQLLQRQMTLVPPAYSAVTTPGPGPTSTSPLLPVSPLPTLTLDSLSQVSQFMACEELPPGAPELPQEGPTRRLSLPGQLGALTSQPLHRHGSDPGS

Row | SMILES | hERG current change (%, negative = inhibition) at 10uM [%]
1 | CN(C)CCNc1ccc(Cl)cc1[N+](=O)[O-] | -18.7
2 | CCCN1C2CCCC1CC(NC(=O)NC13CC4CC(CC(C4)C1)C3)C2 (stereo not shown) | -41.5
3 | Cc1ccccc1NC(=O)C1C2CCCCC21 (stereo not shown) | 6.99
4 | Cc1ccnc(NC(=O)C(C)n2cc([N+](=O)[O-])cn2)c1 (stereo not shown) | -3.83
5 | CC1CC(C)CN(S(=O)(=O)c2ccc3c(c2)oc(=O)n3CC(=O)N2CCOCC2)C1 (stereo not shown) | 4.92
6 | CN1C(=O)[C@H]2[C@@H](C3CC3)N3C(=O)CN(CC4CC4)C(=O)[C@@]3(C)[C@H]2C1=O | 16.9
7 | COC(=O)C1=C(c2ccc(OC)c(OC)c2)C[C@@H]2CC[C@H]1N2C(=O)NCCO | 15.5
8 | O=C(COC(=O)c1ccccc1OCc1ccc(F)cc1)NCC1CCCO1 (stereo not shown) | -15.6
9 | CC(=O)Nc1ccc(S(=O)(=O)NC2(C(F)(F)F)NC(=O)N(Cc3ccccc3)C2=O)cc1 (stereo not shown) | 13.1
10 | COc1cccc(CN(C)C(=O)c2ccc(NC(=O)CC3SC(N4CCCC4)=NC3=O)cc2)c1OC (stereo not shown) | 3.2
11 | CCCCCOc1ccc(CSC2=NCCN2)cc1[N+](=O)[O-] | -80.2
12 | Cc1nn(Cc2ccc(Cl)cc2)c(C)c1NC(=O)C1CC=CCC1C(=O)O (stereo not shown) | 11.1
13 | O=C(Cn1ncc2c(=O)oc3ccccc3c21)NCCCN1CCCC1=O | 1.85
14 | COc1cc(Cl)c(C)cc1NC(=O)COC(=O)/C=C/c1c(C)nn(C2CCS(=O)(=O)C2)c1Cl (stereo not shown) | 8.93
15 | COC(CNC(=O)c1ccc2c(c1)ncn2-c1cccc(C)c1)OC | -2
16 | Cc1ccc(NC(=O)Cc2ccccc2Cl)cc1S(=O)(=O)N(C)C | 0.299
17 | Cc1cc(C(=O)CN2CCCC2)c(C)n1-c1ccc(Cl)cc1 | 7.43
18 | CN(c1cccc(NC(=O)CN(c2ccc(Cl)c(Cl)c2)S(=O)(=O)c2ccccc2)c1)S(C)(=O)=O | -2.36
19 | O=C(Nc1ccccc1-c1ccccc1)c1ccccc1[N+](=O)[O-] | 12.2
20 | N#CCC(=O)Nc1ccc(C(=O)OCC(=O)N2CCCC2=O)cc1 | 18.1
21 | COc1ccc(-c2cc(CNS(=O)(=O)c3ccc(NC(C)=O)cc3)on2)cc1 | 18.6
22 | COc1ccc(-c2oc3cccnc3c2C#CC2(O)CCCCC2)cc1 | -1.19

Row | SMILES | hERG current change (%, negative = inhibition) at 10uM [%]
23 | CCc1nc2ccccc2n1CC(O)COc1ccc(NC(C)=O)cc1 (stereo not shown) | 12.1
24 | Cc1onc(-c2ccccc2Cl)c1C(=O)N1CCN(C/C=C/c2ccccc2)CC1 | -46.6
25 | Cc1ccc(S(=O)(=O)N2CCC(C(=O)Nc3ccccc3N3CCCC3)CC2)c(C)c1 | 13.2
26 | COC(=O)c1sccc1NC(=O)C12CC3CC(CC(C3)C1)C2 | 23.3
27 | CCCCc1nc2ccccc2n1Cc1nnc2n1-c1ccccc1SC2 | -63
28 | O=C(CC1SC(N2CCCCC2)=NC1=O)Nc1cccc(C(F)(F)F)c1 (stereo not shown) | 12.3
29 | O=C(COc1ccccc1[N+](=O)[O-])N1CCC(Cc2ccccc2)CC1 | -16.1
30 | Cc1cc(C(=O)N/N=C/C=C/c2ccc(Br)cc2)n[nH]1 | 9.77
31 | Cc1ccccc1C(=O)NC1CC2CCCC(C1)N2Cc1ccccc1 (stereo not shown) | -25
32 | CCCCn1c(N)c(N(CC(C)C)C(=O)c2cc(-c3ccc(OC)c(OC)c3)nc3ccccc23)c(=O)[nH]c1=O | 1.67
33 | CNC(=S)c1cc(C(C)(C)C)c(O)c(C(C)(C)C)c1 | 18.6
34 | CC(C)NC(=S)N/N=C1\CCCc2ccccc21 | 10.4
35 | COc1ccc(CNC(=O)C2CCC(CNc3c(N4CCC(C)CC4)c(=O)c3=O)CC2)cc1 (stereo not shown) | 2.45
36 | COc1ccc(NC(=O)CSc2nc(O)cc(=O)[nH]2)c(OC)c1 | 13.6
37 | Cc1nc(=O)c(-c2ccccc2)c(C)n1-c1ccccc1C(=O)O | 21.9
38 | O=C(CNC(=O)c1cccc(F)c1)OCC(=O)N1CCN(C(=O)c2ccco2)CC1 | 22.8
39 | Cc1ccc(C(=O)CCC(=O)OCC(=O)N(CC(C)C)c2c(N)n(Cc3ccccc3)c(=O)[nH]c2=O)cc1 | -33.2
40 | CS(=O)(=O)Nc1cccc(C2=NN(S(C)(=O)=O)C(c3ccc4c(c3)OCO4)C2)c1 (stereo not shown) | -62.3
41 | CC(C)COCC(O)CC(Cc1ccccc1)C(=O)NN (stereo not shown) | 26.1
42 | CC(C)[N+](C)(CCC(C(N)=O)(c1ccccc1)c1ccccc1)C(C)C.[I-] | 19.2
43 | Cc1nnc(SCC(=O)NC23CC4CC(CC(C4)C2)C3)s1 | 22.2
